This experiment has as its target GTPase KRas (Homo sapiens) (UniProt P01116). The experiment in a line: Covalent labelling of cysteine mutants by fragments, read by mass spectrometry (AID 2202238). Further details: protein at 5 µM with 500 µM competing thiol for 1.5 h. Conditions: KRAS G12D cysteine mutants, disulfide tethering, MALDI-TOF labeling, stronger effect = higher value, fragment at 500 µM.
Where [1] appears, read: measured here: G60C mutant labeling.
Setting [2] is: measured here: G75C mutant labeling.
[3] abbreviates: measured here: H94C mutant labeling.
[4] abbreviates: measured here: I36C mutant labeling.
Setting [5] is: measured here: L120C mutant labeling.
Where [6] appears, read: measured here: M67C mutant labeling.
Where [7] appears, read: measured here: M72C mutant labeling.
The mark [8] stands for this setting: measured here: N26C mutant labeling.
Setting [9] is: measured here: N86C mutant labeling.
Where [10] appears, read: measured here: P121C mutant labeling.
Where [11] appears, read: measured here: S122C mutant labeling.
Where [12] appears, read: measured here: S136C mutant labeling.

The structures appear in SMILES notation. This is one part of the list. The main result of the screen is listed elsewhere. These columns were measured beside it and carry no call.

Chain of UniProt P01116 (P01116 whole entry, looked up, the tested form may be a part): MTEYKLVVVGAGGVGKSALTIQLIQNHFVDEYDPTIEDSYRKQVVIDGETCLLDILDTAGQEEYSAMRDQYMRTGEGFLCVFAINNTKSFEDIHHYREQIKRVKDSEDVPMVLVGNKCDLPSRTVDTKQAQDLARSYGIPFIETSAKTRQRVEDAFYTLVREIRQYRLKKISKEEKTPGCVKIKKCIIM

For `Cc1nc(-c2c[nH]c(C(=O)NCCS)c2)cs1`, the percent labeling by setting is: under setting [1], 31.1%; under setting [2], 18.8%; under setting [3], 23%; under setting [4], 27.8%; under setting [5], 26.4%; under setting [6], 20.5%. For the same molecule, the percent labeling turned out to be 56.4% under setting [7]; 49.9% under setting [8]; 18.1% under setting [9]; 19.7% under setting [10]; 17.8% under setting [11]; 33.6% under setting [12].
For `O=C(NCCS)[C@@H]1OCC[C@@H]1Cn1cccn1`, the percent labeling is, setting by setting: under setting [1], 21%; under setting [2], 8.7%; under setting [3], 22.8%; under setting [4], 16.3%; under setting [5], 38.8%; under setting [6], 25.3%. This molecule also yielded a percent labeling under setting [7] of 13.2%; a percent labeling under setting [8] of 28.4%; a percent labeling under setting [9] of 19.6%; a percent labeling under setting [10] of 27%; a percent labeling under setting [11] of 28%; a percent labeling under setting [12] of 46.8%.
For `CN(C(N)=O)c1cccc(NC(=O)CCS)c1`, the percent labeling under setting [2] stood at 11%; the percent labeling under setting [3] worked out at 28.7%; the percent labeling under setting [4] stood at 21.4%; the percent labeling under setting [5] was 22.7%; the percent labeling under setting [6] came to 25.7%; the percent labeling under setting [7] stood at 23%. The molecule further displayed a percent labeling under setting [9] of 15.6%, a percent labeling under setting [10] of 24.6%, a percent labeling under setting [11] of 31.1% and a percent labeling under setting [12] of 40.9%.
In the case of `O=C(CCS)Nc1cnn(C2CCCC2)c1`, the percent labeling by setting is: under setting [2], 22.1%; under setting [3], 37.1%; under setting [4], 40.1%; under setting [5], 36.2%; under setting [6], 28.9%; under setting [7], 45%. For the same molecule, the percent labeling is 25.5% under setting [9], 35.8% under setting [10], 40.8% under setting [11] and 59.4% under setting [12].
With `CCc1nn(C)c(CC(=O)NCCS)c1Cl`, the percent labeling by setting is: under setting [1], 50.5%; under setting [2], 21.3%; under setting [3], 37.2%; under setting [4], 29.9%; under setting [5], 43.2%; under setting [6], 35.5%. Also, the percent labeling stood at 35.1% under setting [7]; 41.6% under setting [8]; 28.5% under setting [9]; 35.2% under setting [10]; 34.3% under setting [11]; 47.5% under setting [12].
Consider `CCCN1C(=O)c2ccccc2N2C(=O)CCC12C(=O)NCCS` (stereo unspecified), for which the percent labeling was 34% under setting [1]; 8% under setting [2]; 29.1% under setting [3]; 26.1% under setting [4]; 29.6% under setting [5]; 32.5% under setting [6]. Further, the percent labeling runs as follows: under setting [7], 18.7%; under setting [8], 34%; under setting [9], 16.4%; under setting [10], 28.6%; under setting [11], 27.2%; under setting [12], 51%.
For `O=C(NCCS)c1cc(Br)c2c(c1)C(=O)NCCO2`, the percent labeling reads like this: under setting [1], 58.6%; under setting [2], 22.3%; under setting [3], 24.2%; under setting [4], 18.3%; under setting [5], 24.8%; under setting [6], 26.6%. In addition, the percent labeling under setting [7] came to 55.4%; the percent labeling under setting [8] was 38%; the percent labeling under setting [9] was determined as 19%; the percent labeling under setting [10] came to 20.8%; the percent labeling under setting [11] is 27.5%; the percent labeling under setting [12] came out at 48.4%.
Consider `Cc1ccc(-c2nc(C)c(C(=O)NCCS)s2)c(F)c1`, for which the percent labeling runs as follows: under setting [1], 18.6%; under setting [2], 8.5%; under setting [3], 14.1%; under setting [4], 10.3%; under setting [5], 10.1%; under setting [6], 10.6%. Also, the percent labeling reads like this: under setting [7], 41.6%; under setting [8], 25.1%; under setting [9], 10.6%; under setting [10], 13.7%; under setting [11], 2.6%; under setting [12], 12.5%.
`O=C(CCCn1nnc(-c2ccccc2)n1)NCCS`: the percent labeling is 35.1% under setting [1]; 19.3% under setting [2]; 23.9% under setting [3]; 18.7% under setting [4]; 27.4% under setting [5]; 43.3% under setting [6]. Moreover, the percent labeling under setting [7] worked out at 22.4%; the percent labeling under setting [8] amounted to 35.1%; the percent labeling under setting [9] was determined as 20.8%; the percent labeling under setting [10] is 21.5%; the percent labeling under setting [11] amounted to 19.8%; the percent labeling under setting [12] came out at 27.4%.
`COc1cccc(C2C(NC(=O)CCS)CCN2C2CC2)c1` (stereo unspecified) had a percent labeling under setting [2] of 18.8%; a percent labeling under setting [3] of 36.9%; a percent labeling under setting [4] of 42.1%; a percent labeling under setting [5] of 33.3%; a percent labeling under setting [6] of 45.7%; a percent labeling under setting [7] of 24.2%. For the same molecule, the percent labeling is 14.4% under setting [9], 33.9% under setting [10], 31.6% under setting [11] and 63.5% under setting [12].
`O=C(CCS)NCC1CN(c2nncs2)CCO1` (stereo unspecified) came in with a percent labeling under setting [2] of 6.8%; a percent labeling under setting [3] of 34.3%; a percent labeling under setting [4] of 37.7%; a percent labeling under setting [5] of 31.6%; a percent labeling under setting [6] of 43.9%; a percent labeling under setting [7] of 21.5%. Besides, the percent labeling runs as follows: under setting [9], 35.5%; under setting [10], 36%; under setting [11], 33.9%; under setting [12], 54.5%.
`O=C(CCS)Nc1cccc2[nH]c(=O)ccc12`: the percent labeling is, setting by setting: under setting [2], 16.5%; under setting [3], 35.9%; under setting [4], 38%; under setting [5], 20.8%; under setting [6], 32.4%; under setting [7], 31.2%. The percent labeling is 30.2% under setting [9], 25.4% under setting [10], 27.2% under setting [11] and 45.5% under setting [12].
As for `O=C(NCCS)c1c(-n2cccc2)sc2c1CCC2`, the percent labeling under setting [1] came to 57.9%; the percent labeling under setting [2] is 9.6%; the percent labeling under setting [3] was found to be 24.3%; the percent labeling under setting [4] came out at 7.7%; the percent labeling under setting [5] worked out at 16.9%; the percent labeling under setting [6] is 11.8%. Moreover, the percent labeling by setting is: under setting [7], 3.8%; under setting [8], 9.4%; under setting [9], 4.3%; under setting [10], 13.5%; under setting [11], 6.4%; under setting [12], 13.4%.
`O=C(CN1C(=O)C(F)(F)Oc2ccccc21)NCCS`: the percent labeling came to 31.6% under setting [1]; 13% under setting [2]; 19.7% under setting [3]; 19.5% under setting [4]; 29.1% under setting [5]; 16.7% under setting [6]. The molecule also returned a percent labeling under setting [7] of 22.9%; a percent labeling under setting [8] of 27.6%; a percent labeling under setting [9] of 16.3%; a percent labeling under setting [10] of 17.2%; a percent labeling under setting [11] of 14.3%; a percent labeling under setting [12] of 27.8%.
For the molecule `O=C(NCCS)C(O)c1cccnc1` (stereo unspecified), the percent labeling amounted to 30.4% under setting [1]; 18.2% under setting [2]; 31.1% under setting [3]; 26.6% under setting [4]; 40.1% under setting [5]; 31.1% under setting [6]. In addition, the percent labeling under setting [7] turned out to be 22%; the percent labeling under setting [8] was 35.8%; the percent labeling under setting [9] turned out to be 27.2%; the percent labeling under setting [10] was 31.2%; the percent labeling under setting [11] amounted to 29.5%; the percent labeling under setting [12] came out at 46.2%.
With `O=C(CCS)N1CCOc2cc(Br)c(F)cc21`, the percent labeling runs as follows: under setting [2], 27.2%; under setting [3], 19.9%; under setting [4], 18.8%; under setting [5], 15.5%; under setting [6], 21.1%; under setting [7], 44%. Further, the percent labeling by setting is: under setting [9], 16.4%; under setting [10], 19.8%; under setting [11], 7.8%; under setting [12], 23.4%.
Take `CC(C)(c1cccc(NC(=O)CCS)c1)C(F)(F)F`: the percent labeling stood at 13.2% under setting [2]; 20.9% under setting [3]; 17.2% under setting [4]; 17% under setting [5]; 11.8% under setting [6]; 39.1% under setting [7]. Also, the percent labeling is 12% under setting [9], 14.5% under setting [10], 13.7% under setting [11] and 27.5% under setting [12].
As to `O=C(NCCS)c1cc2c(ccc3ccccc32)o1`, the percent labeling runs as follows: under setting [1], 17.9%; under setting [2], 12%; under setting [3], 8.4%; under setting [4], 6%; under setting [5], 13.4%; under setting [6], 7.6%. The percent labeling was 30.7% under setting [7]; 21% under setting [8]; 10.4% under setting [9]; 9.4% under setting [10]; 7.9% under setting [11]; 11.2% under setting [12].
Take `O=C(CCS)NC1CS(=O)(=O)C2CN(Cc3ccccc3)CC12` (stereo unspecified): the percent labeling turned out to be 12.4% under setting [2]; 27.2% under setting [3]; 47.8% under setting [4]; 25.8% under setting [5]; 58.1% under setting [6]; 24.5% under setting [7]. The percent labeling under setting [9] is 19.3%, the percent labeling under setting [10] amounted to 33.3%, the percent labeling under setting [11] stood at 31.7% and the percent labeling under setting [12] turned out to be 53.4%.
In the case of `CCCC(NC(=O)c1cc2ccccc2s1)C(=O)NCCS` (stereo unspecified), the percent labeling under setting [1] stood at 23.1%; the percent labeling under setting [2] was found to be 15.7%; the percent labeling under setting [3] amounted to 10.2%; the percent labeling under setting [4] is 7.1%; the percent labeling under setting [5] turned out to be 17%; the percent labeling under setting [6] was 22.1%. Also, the percent labeling is, setting by setting: under setting [7], 23%; under setting [8], 21%; under setting [9], 5.8%; under setting [10], 11.5%; under setting [11], 4.7%; under setting [12], 7.3%.
`Cc1ccc(CN(CCO)C(=O)CCS)o1` returned a percent labeling under setting [2] of 21.8%; a percent labeling under setting [3] of 36.4%; a percent labeling under setting [4] of 25.1%; a percent labeling under setting [5] of 26.9%; a percent labeling under setting [6] of 29.4%; a percent labeling under setting [7] of 28.4%. For the same molecule, the percent labeling is, setting by setting: under setting [9], 24.6%; under setting [10], 29.9%; under setting [11], 33.5%; under setting [12], 54.5%.
For the molecule `O=C(CCS)Nc1cccc(Cc2nc3cccc(Cl)c3s2)c1`, the percent labeling amounted to 14% under setting [2]; 19.4% under setting [3]; 37.6% under setting [4]; 11.5% under setting [5]; 30.1% under setting [6]; 35.1% under setting [7]. The percent labeling is, setting by setting: under setting [9], 20%; under setting [10], 14.3%; under setting [11], 10.4%; under setting [12], 18.8%.
Turning to `Cn1c(=O)n(CC(=O)NCCS)c2ccccc21`, the percent labeling under setting [1] came out at 43.7%; the percent labeling under setting [2] is 21.1%; the percent labeling under setting [3] was found to be 35.1%; the percent labeling under setting [4] turned out to be 36.2%; the percent labeling under setting [5] is 59.1%; the percent labeling under setting [6] worked out at 31%. For the same molecule, the percent labeling came to 38.3% under setting [7]; 41.7% under setting [8]; 24.6% under setting [9]; 33.5% under setting [10]; 32.9% under setting [11]; 61.2% under setting [12].

The values above are taken from PubChem BioAssay AID2202238 (Ras Initiative Chemistry Research Team, Frederick National …, 2025).
